Source: PubChem BioAssay (NCATS)
This list was built around the results that the source calls inconclusive (neither active nor inactive); the mix of calls is not that of the screen. Where the call is inconclusive, the potency comes from a doubtful curve fit. The source made the active and inactive calls. The call rests on the fitted dose curve; in most records, active means well fitted cell-killing curve with a large enough effect; inconclusive means small, poorly fitted or top-dose-only effect, or effect the other way; inactive means no such curve, though single readings can be large or run the other way.

Experiment: Viability qHTS for spleen associated tyrosine kinase inhibitor (SYKi) naive MV4-11 cells (AID 1963823); further: nearly all actives have a fitted effect of over 40% in size
Conditions: MV4-11 AML viability, CellTiter-Glo luminescence, 72 h; viability (% of control): at 45 µM (top of the series)
Summary of the method: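 Viability of MV4-11 AML cells lacking prior SYK inhibitor exposure is scored by CellTiter-Glo luminescence following 72 hr compound incubation at 37 C, 5% CO2, seeded at 500 cells per well.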
Potency means the concentration at half of the fitted maximal effect; tags describe the fitted curve by direction and shape.

SMILES | Potency | viability (% of control)
CC(C)c1ccc(-c2cc(=O)c3ccccc3o2)cc1 | inconclusive: 11.6 µM [cytotoxic, partial curve] | 
Cc1cc(O)cc(Oc2cc(C)c(C(=O)O)c(O)c2)c1 |  | inactive: 69.8%
CC1(C)CC[C@]2(C(=O)O)CC[C@]3(C)C(=CCC4[C@@]5(C)CC[C@H](O[C@@H]6O[C@H](CO)[C@@H](O)[C@H](O)[C@H]6O[C@@H]6O[C@H](CO)[C@@H](O)[C@H](O)[C@H]6O)[C@@](C)(CO)C5CC[C@]43C)[C@@H]2C1 (stereo partly drawn) |  | inactive: 85.6% [at 17.3 µM]
CCN(CCN(C)C)C(=O)CNCc1cc(C(N)=O)ccn1 |  | inactive: 106%
O=C1C(O)=C(O)C(=O)C(O)=C1O | inconclusive: 1.88 µM [rising, partial curve, poor fit] | 
C=C1C2CCC3CC2(CC(O)C2(O)C1CC(OC1OC(CO)C(O)C(O)C1O)C2(C)C)CC3(C)O (stereo not drawn) |  | inactive: 81.4% [at 17.3 µM]
C=C(C(=O)O)C1CC(O)C2(C)CCCC(C)(O)C2C1 (stereo not drawn) |  | inactive: 82%
CC1=C(CC(=O)O)c2cc(F)ccc2C1=Cc1ccc(S(C)(=O)=O)cc1 | inconclusive: 16.4 µM [cytotoxic, partial curve, poor fit] | 
CC(=O)Nc1cccc(-c2csc(Nc3cc(C)ccn3)n2)c1 | inconclusive: 13 µM [cytotoxic, partial curve] | 
CN1CCC(c2cn(C)c3ccc(OS(=O)(=O)c4c(F)cccc4F)cc23)CC1 | inconclusive: 13 µM [cytotoxic, partial curve] | 
C=CC(=O)Nc1cc(N2CCN(CC)CC2)ccc1Nc1cc(N(C)C(=O)Nc2c(Cl)c(OC)cc(OC)c2Cl)ncn1 | inconclusive: 6.61 µM [cytotoxic, full curve] | 
O=C(Nc1cccnn1)N1CCN(c2nccc(-c3ccc(F)c(F)c3)n2)CC1 |  | inactive: 80.7% [at 91.9 µM]
COc1cccc(Nc2ncnn3ccc(CN4CC[C@@H](N)[C@H](O)C4)c23)c1 | active: 0.0411 µM | 
